Measured values taken from the supplement of paper PMC4967469.
By IC50 is meant the dose at which the fit gives 50% viability; fits outside the tested doses are given as limits. AUC, from the same fit, is the share of area under the viability curve across the 256-fold dose range: 1 means no effect, lower means more sensitive. An inferred top dose is not printed in the source and was worked back from the curve model.

Experiments:
Assay in all cases: Viability of human cancer cell lines after 72 h of drug (GDSC screen)
Cisplatin = compound: N.N.[Cl][Pt][Cl] [Cisplatin]; settings: top dose inferred
Experimental: (§1)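 Human cancer cell lines in 384-well plates, medium with 10% serum, drug for 72 h over a 256-fold dose range (nine 2-fold or five 4-fold steps up to the top dose). Adherent lines were fixed and stained with the nucleic acid dye Syto60, suspension lines read with resazurin; signal relative to control wells, capped at 0 and 100%. One two-parameter sigmoid per drug and line, fitted in a mixed model over all curves with the slope shared within a line.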

QL-XI-92 = compound: C=CC(=O)Nc1cc(NC(=O)c2ccc(C)c(NC(=O)c3ccno3)c2)cc(C(F)(F)F)c1 [QL-XI-92]; settings: top dose 10.24 µM; top dose inferred
Experimental: as §1

Vinorelbine = compound: CCC1=C[C@@H]2CN(C1)Cc1c([nH]c3ccccc13)[C@@](C(=O)OC)(c1cc3c(cc1OC)N(C)[C@H]1[C@@](O)(C(=O)OC)[C@H](OC(C)=O)[C@]4(CC)C=CCN5CC[C@]31[C@@H]54)C2 [Vinorelbine]; settings: top dose 0.064 µM; top dose inferred
Experimental: as §1

AG-014699 = compound: CNCc1ccc(-c2[nH]c3cc(F)cc4c3c2CCNC4=O)cc1 [AG-014699]; settings: top dose 5 µM; top dose inferred
Experimental: as §1

XL-184 = compound: COc1cc2nccc(Oc3ccc(NC(=O)C4(C(=O)Nc5ccc(F)cc5)CC4)cc3)c2cc1OC [XL-184]; settings: top dose 5.12 µM; top dose inferred
Experimental: as §1

WHI-P97 = compound: COc1cc2ncnc(Nc3cc(Br)c(O)c(Br)c3)c2cc1OC [WHI-P97]; settings: top dose 10.24 µM; top dose inferred
Experimental: as §1

Phenformin = compound: N=C(N)NC(=N)NCCc1ccccc1 [Phenformin]; settings: top dose 4000 µM; top dose inferred
Experimental: as §1

EHT 1864 = compound: O=c1cc(CN2CCOCC2)occ1OCCCCCSc1ccnc2cc(C(F)(F)F)ccc12 [EHT 1864]; settings: top dose 10 µM; top dose inferred
Experimental: as §1

NU-7441 = compound: O=c1cc(N2CCOCC2)oc2c(-c3cccc4c3sc3ccccc34)cccc12 [NU-7441]; settings: top dose 2 µM; top dose inferred
Experimental: as §1

Cell Line	AUC (Cisplatin)	IC50 (Cisplatin) [µM]	also measured
8-MG-BA (glioma, adherent, top dose 10 µM)	0.822	5.39	
22RV1 (prostate, adherent, top dose 10 µM)	0.913	> 10	
42-MG-BA (glioma, adherent, top dose 10 µM)	0.924	> 10	
201T (lung adenocarcinoma, adherent, top dose 10 µM)	0.792	5.89	
451Lu (melanoma, adherent, top dose 10 µM)	0.818	5.32	
639-V (bladder, adherent, top dose 10 µM)	0.712	2.22	
647-V (bladder, adherent, top dose 10 µM)	0.871	9.52	
697 (lymphoblastic leukaemia, suspension, top dose 10 µM)	0.8	3.76	
5637 (bladder, adherent, top dose 10 µM)	0.808	4.59	
8305C (thyroid, adherent, top dose 10 µM)	0.946	> 10	
8505C (thyroid, adherent, top dose 10 µM)	0.865	9.75	
23132-87 (stomach, adherent, top dose 10 µM)	0.969	> 10	
A3-KAW (B-cell lymphoma, suspension, top dose 10 µM)	0.839	4.93	
A4-Fuk (B-cell lymphoma, suspension, top dose 10 µM)	0.85	8.13	
A101D (melanoma, adherent, top dose 10 µM)	0.732	3.39	
A253 (head and neck, adherent, top dose 10 µM)	0.862	8.2	
A375 (melanoma, adherent, top dose 10 µM)	0.634	1.36	
A388 (skin, adherent, top dose 10 µM)	0.874	> 10	
A427 (non-small cell lung carcinoma, adherent, top dose 10 µM)	0.937	> 10	
A431 (skin, adherent, top dose 10 µM)	0.959	> 10	

Cell Line	AUC (Cisplatin)	IC50 (Cisplatin) [µM]	also measured
A498 (kidney, adherent, top dose 10 µM)	0.878	> 10	
A704 (kidney, adherent, top dose 10 µM)	0.97	> 10	
A2058 (melanoma, adherent, top dose 10 µM)	0.79	3.92	
ABC-1 (lung adenocarcinoma, adherent, top dose 10 µM)	0.707	2.73	
ACHN (kidney, adherent, top dose 10 µM)	0.832	7.66	
AGS (stomach, adherent, top dose 10 µM)	0.92	> 10	
ALL-PO (lymphoblastic leukaemia, suspension, top dose 10 µM)	0.872	> 10	
ALL-SIL (T-cell leukaemia, suspension, top dose 10 µM)	0.907	> 10	
AM-38 (glioma, semi-adherent, top dose 10 µM)	0.896	> 10	
AMO-1 (haematopoietic neoplasm, suspension, top dose 10 µM)	0.966	> 10	
AN3-CA (endometrium, adherent, top dose 10 µM)	0.84	7.82	
ARH-77 (myeloma, suspension, top dose 10 µM)	0.892	> 10	
ASH-3 (thyroid, adherent, top dose 10 µM)	0.857	8.16	
ATN-1 (T-cell lymphoblastic leukaemia, suspension, top dose 10 µM)	0.883	9.54	
AU565 (breast, adherent, top dose 10 µM)	0.845	8.46	
AsPC-1 (pancreas, adherent, top dose 10 µM)	0.899	> 10	
BALL-1 (B-cell leukaemia, suspension, top dose 10 µM)	0.923	7.9	
BB30-HNC (head and neck, adherent, top dose 10 µM)	0.825	5.84	
BB49-HNC (head and neck, adherent, top dose 10 µM)	0.941	> 10	
BB65-RCC (kidney, adherent, top dose 10 µM)	0.729	3.13	

Cell Line	AUC (Cisplatin)	IC50 (Cisplatin) [µM]	also measured
BC-1 (B-cell lymphoma, suspension, top dose 10 µM)	0.961	> 10	
BE2-M17 (neuroblastoma, adherent, top dose 10 µM)	0.899	> 10	
BE-13 (lymphoblastic leukaemia, suspension, top dose 10 µM)	0.944	> 10	
BFTC-905 (bladder, adherent, top dose 10 µM)	0.747	2.82	
BHT-101 (thyroid, adherent, top dose 10 µM)	0.747	3.29	
BICR10 (head and neck, adherent, top dose 10 µM)	0.886	> 10	
BICR22 (head and neck, adherent, top dose 10 µM)	0.776	4.59	
BICR78 (head and neck, adherent, top dose 10 µM)	0.811	6.38	
BL-41 (Burkitt lymphoma, suspension, top dose 10 µM)	0.877	6.11	
BT-20 (breast, adherent, top dose 10 µM)	0.922	> 10	
BT-474 (breast, adherent, top dose 10 µM)	0.986	> 10	
BT-483 (breast, adherent, top dose 10 µM)	0.972	> 10	
BT-549 (breast, adherent, top dose 10 µM)	0.907	> 10	
BV-173 (chronic myeloid leukaemia, suspension, top dose 10 µM)	0.791	3.91	
T47D (breast, adherent)			AUC (QL-XI-92): 0.968; IC50 (QL-XI-92): > 10.2 µM; AUC (Vinorelbine): 0.902; IC50 (Vinorelbine): > 0.064 µM; AUC (AG-014699): 0.912; IC50 (AG-014699): > 5 µM; AUC (XL-184): 0.918; IC50 (XL-184): > 5.12 µM; AUC (WHI-P97): 0.974; IC50 (WHI-P97): > 10.2 µM; AUC (Phenformin): 0.828; IC50 (Phenformin): > 4000 µM; AUC (EHT 1864): 0.879; IC50 (EHT 1864): > 10 µM; AUC (NU-7441): 0.946; IC50 (NU-7441): > 2 µM
TCCSUP (bladder, adherent)			AUC (QL-XI-92): 0.974; IC50 (QL-XI-92): > 10.2 µM; AUC (Vinorelbine): 0.683; IC50 (Vinorelbine): 0.014 µM; AUC (AG-014699): 0.971; IC50 (AG-014699): > 5 µM; AUC (XL-184): 0.958; IC50 (XL-184): > 5.12 µM; AUC (WHI-P97): 0.979; IC50 (WHI-P97): > 10.2 µM; AUC (Phenformin): 0.951; IC50 (Phenformin): > 4000 µM; AUC (EHT 1864): 0.963; IC50 (EHT 1864): > 10 µM; AUC (NU-7441): 0.971; IC50 (NU-7441): > 2 µM
U031 (kidney, adherent)			AUC (QL-XI-92): 0.973; IC50 (QL-XI-92): > 10.2 µM; AUC (Vinorelbine): 0.969; IC50 (Vinorelbine): > 0.064 µM; AUC (AG-014699): 0.945; IC50 (AG-014699): > 5 µM; AUC (XL-184): 0.911; IC50 (XL-184): > 5.12 µM; AUC (WHI-P97): 0.948; IC50 (WHI-P97): > 10.2 µM; AUC (Phenformin): 0.81; IC50 (Phenformin): 2200 µM; AUC (EHT 1864): 0.88; IC50 (EHT 1864): > 10 µM; AUC (NU-7441): 0.892; IC50 (NU-7441): > 2 µM
VM-CUB-1 (bladder, adherent)			AUC (QL-XI-92): 0.988; IC50 (QL-XI-92): > 10.2 µM; AUC (Vinorelbine): 0.755; IC50 (Vinorelbine): 0.0211 µM; AUC (AG-014699): 0.987; IC50 (AG-014699): > 5 µM; AUC (XL-184): 0.978; IC50 (XL-184): > 5.12 µM; AUC (WHI-P97): 0.955; IC50 (WHI-P97): > 10.2 µM; AUC (Phenformin): 0.936; IC50 (Phenformin): > 4000 µM; AUC (EHT 1864): 0.987; IC50 (EHT 1864): > 10 µM; AUC (NU-7441): 0.939; IC50 (NU-7441): > 2 µM
